Experimental data as given in US20240400691A1 (FBD BIOLOGICS, published 2024).

Columns and labels:
human CD47 [1] = target: T1, human CD47 (human, UniProt Q08722); assay: flow cytometry on NCI-H460 cells (endogenous CD47), PE goat anti-human IgG
T1 construct: whole, on cells; also called CD47 tf CHO-S; endogenous CD47 on FaDu and NCI-H460 cells

human TGFβ1 = target: T2, human TGFβ1 (human, UniProt P01137 in part); assay: ELISA, plate coated with 0.5 µg/ml human TGFβ1, HRP secondary antibody, OD450
Chain of human TGFβ1 (P01137 279-390 limits assumed): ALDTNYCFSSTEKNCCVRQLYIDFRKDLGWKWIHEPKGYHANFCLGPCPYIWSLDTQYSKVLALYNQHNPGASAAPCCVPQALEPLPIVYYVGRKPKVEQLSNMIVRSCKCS
T2 construct: also called hTGFβ1

human TGFβ3 = target: T3, human TGFβ3 (human, UniProt P10600 301-412); assay: ELISA, plate coated with 0.5 µg/ml human TGFβ3, HRP secondary antibody, OD450
T3 construct: also called hTGFβ3
T3 sequence (looked up): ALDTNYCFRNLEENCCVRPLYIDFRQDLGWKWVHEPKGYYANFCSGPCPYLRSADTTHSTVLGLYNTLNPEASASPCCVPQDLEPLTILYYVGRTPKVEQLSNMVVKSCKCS

human CD47 [2] = target: T1, human CD47; assay: flow cytometry on CD47 tf CHO-S cells, PE goat anti-human IgG; EC50 from the table under the curves
human PD-L1 [3] = target: T4, human PD-L1 (human, UniProt Q9NZQ7); assay: flow cytometry on PD-L1 tf CHO-S cells, PE goat anti-human IgG; EC50 from the table under the curves
T4 construct: whole, on cells; For the PD-L1 tf DLD1 cells the species of PD-L1 is not restated; also called PD-L1 tf CHO-S; PD-L1 tf DLD1

human PD-L1 [4] = target: T4, human PD-L1; assay: flow cytometry competition on PD-L1 tf CHO-S cells against a fixed concentration of biotinylated PD1_G4, streptavidin-PE; IC50 from the table under the curves
T4 sequence (Q9NZQ7 19-290): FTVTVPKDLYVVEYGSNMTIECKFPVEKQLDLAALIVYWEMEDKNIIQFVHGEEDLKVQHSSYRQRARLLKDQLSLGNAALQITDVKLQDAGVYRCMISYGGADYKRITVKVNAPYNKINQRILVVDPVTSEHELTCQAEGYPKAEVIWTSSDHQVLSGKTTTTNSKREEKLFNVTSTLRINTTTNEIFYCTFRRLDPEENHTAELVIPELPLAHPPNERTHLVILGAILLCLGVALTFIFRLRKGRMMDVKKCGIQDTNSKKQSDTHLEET

human CD47 [5] = target: T1, human CD47; assay: flow cytometry competition on CD47 tf CHO-S cells against a fixed concentration of biotinylated SIRPα_G4, streptavidin-PE; IC50 from the table under the curves
human CD47 [6] = target: T1, human CD47; assay: flow cytometry on untransfected DLD1 cells in a 1:1 mixture with PD-L1 tf DLD1 cells; CD47 as the target on DLD1 is inferred from the controls of FIGS. 6A-6E, the filing does not name it [H]
human PD-L1 [7] = target: T4, human PD-L1; assay: flow cytometry on PD-L1 tf DLD1 cells in a 1:1 mixture with DLD1 cells, PE goat anti-human IgG; these cells also bind the anti-CD47 controls (FIGS. 6A-6B), so the CD47 arm may add to the signal [H]
human CD47 [8] = target: T1, human CD47; assay: flow cytometry on untransfected DLD1 cells in a 1:1 mixture with PD-L1 tf DLD1 cells; CD47 as the target on DLD1 is inferred from the controls of FIGS. 6A-6E, the filing does not name it [G]
human PD-L1 [9] = target: T4, human PD-L1; assay: flow cytometry on PD-L1 tf DLD1 cells in a 1:1 mixture with DLD1 cells, PE goat anti-human IgG; these cells also bind the anti-CD47 controls (FIGS. 6A-6B), so the CD47 arm may add to the signal [G]
human CD47 [10] = target: T1, human CD47; assay: flow cytometry on untransfected DLD1 cells in a 1:1 mixture with PD-L1 tf DLD1 cells; CD47 as the target on DLD1 is inferred from the controls of FIGS. 6A-6E, the filing does not name it [I]
human PD-L1 [11] = target: T4, human PD-L1; assay: flow cytometry on PD-L1 tf DLD1 cells in a 1:1 mixture with DLD1 cells, PE goat anti-human IgG; these cells also bind the anti-CD47 controls (FIGS. 6A-6B), so the CD47 arm may add to the signal [I]
human CD47 [12] = target: T1, human CD47; assay: flow cytometry on human RBCs (CD47 on RBCs per paragraph 5), PE goat anti-human IgG
human CD47 [13] = target: T1, human CD47; assay: flow cytometry on untransfected DLD1 cells in a 1:1 mixture with PD-L1 tf DLD1 cells; CD47 as the target on DLD1 is inferred from the controls of FIGS. 6A-6E, the filing does not name it [F]
human PD-L1 [14] = target: T4, human PD-L1; assay: flow cytometry on PD-L1 tf DLD1 cells in a 1:1 mixture with DLD1 cells, PE goat anti-human IgG; these cells also bind the anti-CD47 controls (FIGS. 6A-6B), so the CD47 arm may add to the signal [F]
human CD47 [15] = target: T1, human CD47; assay: flow cytometry on untransfected DLD1 cells in a 1:1 mixture with PD-L1 tf DLD1 cells; CD47 as the target on DLD1 is inferred from the controls of FIGS. 6A-6E, the filing does not name it [J]
human PD-L1 [16] = target: T4, human PD-L1; assay: flow cytometry on PD-L1 tf DLD1 cells in a 1:1 mixture with DLD1 cells, PE goat anti-human IgG; these cells also bind the anti-CD47 controls (FIGS. 6A-6B), so the CD47 arm may add to the signal [J]

B1: PST_G1_v5 (Fc fusion)
chain: QVQLVESGGGVVQPGRSLRLSCAASGGPFMSYAMGWFRQAPGKEREFVAAIRWNGISTFYADSVKGRFTISRDNSKNTLYLQMNSLRAEDTAVYYCAAAQTIVTVPENYHFDYWGQGTQVTVSSGSGGSGGSGGSGGSGGSGEEELQVIQPDKSVSVAAGESAILTCTVTSLYPVGPIQWFRGAGPARELIYNQKRQTFPRVTTVSESTKRFNMDFSISISNITPADAGTYYCVKFRKGSPDTEFKSGAGTELSVRAKPS[human IgG1 Fc with changes not shown]GGGGSGGGGSGGGGSGGGGSGIPPHVQKSVNNDMIVTDNNGAVKFPQLCKFCDVRFSTCDNQKSCMSNCEITSICEKPQEVCVAVWRKNDENITLETVCHDPKLPYHDFILEDAASPKCIMKEKKKPGETFFMCSCSSEECNDNIIFSEEYNTSNPD
notes: also called HCB301_v5 protein; triple-targeting format
- EC50 (read off the curve) (human CD47 [1]): ~0.8 nM
- EC50 (read off the curve) (human TGFβ1): ~1 nM
- EC50 (read off the curve) (human TGFβ3): ~0.3 nM
- EC50 (human CD47 [2]): 0.87 nM
- EC50 (human PD-L1 [3]): 0.32 nM
- IC50 (human PD-L1 [4]): 0.364 nM
- IC50 (human CD47 [5]): 1.28 nM
- EC50 (read off the curve) (human CD47 [6]): ~3 nM
- EC50 (read off the curve) (human PD-L1 [7]): ~1 nM

B2: SPT_G1_v5 (Fc fusion)
chain: EEELQVIQPDKSVSVAAGESAILTCTVTSLYPVGPIQWFRGAGPARELIYNQKRQTFPRVTTVSESTKRFNMDFSISISNITPADAGTYYCVKFRKGSPDTEFKSGAGTELSVRAKPSGSGGSGGSGGSGGSGGSGQVQLVESGGGVVQPGRSLRLSCAASGGPFMSYAMGWFRQAPGKEREFVAAIRWNGISTFYADSVKGRFTISRDNSKNTLYLQMNSLRAEDTAVYYCAAAQTIVTVPENYHFDYWGQGTQVTVSS[human IgG1 Fc with changes not shown]GGGGSGGGGSGGGGSGGGGSGIPPHVQKSVNNDMIVTDNNGAVKFPQLCKFCDVRFSTCDNQKSCMSNCEITSICEKPQEVCVAVWRKNDENITLETVCHDPKLPYHDFILEDAASPKCIMKEKKKPGETFFMCSCSSEECNDNIIFSEEYNTSNPD
notes: as for B1
- EC50 (read off the curve) (human CD47 [1]): ~0.7 nM
- EC50 (read off the curve) (human TGFβ1): ~0.7 nM
- EC50 (read off the curve) (human TGFβ3): ~1 nM
- EC50 (human CD47 [2]): 2.44 nM
- EC50 (human PD-L1 [3]): 1.57 nM
- IC50 (human PD-L1 [4]): 0.834 nM
- IC50 (human CD47 [5]): 1.18 nM
- EC50 (read off the curve) (human CD47 [8]): ~7 nM
- EC50 (read off the curve) (human PD-L1 [9]): ~4 nM

B4: HCB101 (Fc fusion)
chain: EEELQVIQPDKSVSVAAGESAILTCTVTSLYPVGPIQWFRGAGPARELIYNQKRQTFPRVTTVSESTKRFNMDFSISISNITPADAGTYYCVKFRKGSPDTEFKSGAGTELSVRAKPS[human IgG4 Fc with S228P (EU numbers) not shown]
- binding result (human TGFβ1): no binding (tested: 500 nM)
- binding result (human TGFβ3): no binding (tested: 500 nM)

Results, then the binder that gave them:

- binding result (human TGFβ1): no binding (tested: 500 nM)
- EC50 (human CD47 [2]): 0.79 nM
- EC50 (human PD-L1 [3]): 0.48 nM
- IC50 (human PD-L1 [4]): 0.614 nM
- IC50 (human CD47 [5]): 0.999 nM
- EC50 (read off the curve) (human CD47 [10]): ~5 nM
- EC50 (read off the curve) (human PD-L1 [11]): ~1 nM
B3: SP_G4_v5 (Fc fusion)
chain: EEELQVIQPDKSVSVAAGESAILTCTVTSLYPVGPIQWFRGAGPARELIYNQKRQTFPRVTTVSESTKRFNMDFSISISNITPADAGTYYCVKFRKGSPDTEFKSGAGTELSVRAKPSGSGGSGGSGGSGGSGGSGQVQLVESGGGVVQPGRSLRLSCAASGGPFMSYAMGWFRQAPGKEREFVAAIRWNGISTFYADSVKGRFTISRDNSKNTLYLQMNSLRAEDTAVYYCAAAQTIVTVPENYHFDYWGQGTQVTVSS[human IgG4 Fc with S228P (EU numbers) not shown]
notes: also called HCB301_v5 protein; double-targeting format

- EC50 (read off the curve) (human CD47 [1]): ~0.5 nM
- EC50 (read off the curve) (human TGFβ1): ~0.5 nM
- EC50 (read off the curve) (human CD47 [12]): ~0.7 nM
- EC50 (human CD47 [2]): 0.55 nM
- EC50 (human PD-L1 [3]): 0.36 nM
- IC50 (human PD-L1 [4]): 0.664 nM
- IC50 (human CD47 [5]): 1.14 nM
- EC50 (read off the curve) (human CD47 [13]): ~3 nM
- EC50 (read off the curve) (human PD-L1 [14]): ~1 nM
B5: SPT_G4_v5 (Fc fusion)
chain: EEELQVIQPDKSVSVAAGESAILTCTVTSLYPVGPIQWFRGAGPARELIYNQKRQTFPRVTTVSESTKRFNMDFSISISNITPADAGTYYCVKFRKGSPDTEFKSGAGTELSVRAKPSGSGGSGGSGGSGGSGGSGQVQLVESGGGVVQPGRSLRLSCAASGGPFMSYAMGWFRQAPGKEREFVAAIRWNGISTFYADSVKGRFTISRDNSKNTLYLQMNSLRAEDTAVYYCAAAQTIVTVPENYHFDYWGQGTQVTVSS[human IgG4 Fc with S228P (EU numbers) not shown]AGGGGSGGGGSGGGGSGGGGSGIPPHVQKSVNNDMIVTDNNGAVKFPQLCKFCDVRFSTCDNQKSCMSNCEITSICEKPQEVCVAVWRKNDENITLETVCHDPKLPYHDFILEDAASPKCIMKEKKKPGETFFMCSCSSEECNDNIIFSEEYNTSNPD
notes: expressed in CHO-S cells; also called HCB301_v5 protein; triple-targeting format

- binding result (human TGFβ1): no binding (tested: 500 nM)
- EC50 (human CD47 [2]): 0.8 nM
- EC50 (human PD-L1 [3]): 0.31 nM
- IC50 (human PD-L1 [4]): 0.413 nM
- IC50 (human CD47 [5]): 0.694 nM
- EC50 (read off the curve) (human CD47 [15]): ~4 nM
- EC50 (read off the curve) (human PD-L1 [16]): ~1 nM
B6: SP_G1_v5 (Fc fusion)
chain: EEELQVIQPDKSVSVAAGESAILTCTVTSLYPVGPIQWFRGAGPARELIYNQKRQTFPRVTTVSESTKRFNMDFSISISNITPADAGTYYCVKFRKGSPDTEFKSGAGTELSVRAKPSGSGGSGGSGGSGGSGGSGQVQLVESGGGVVQPGRSLRLSCAASGGPFMSYAMGWFRQAPGKEREFVAAIRWNGISTFYADSVKGRFTISRDNSKNTLYLQMNSLRAEDTAVYYCAAAQTIVTVPENYHFDYWGQGTQVTVSS[human IgG1 Fc with changes not shown]
notes: as for B3

Each block holds one binder with its values, some of them ahead of it.
